{
  "source": "PubChem BioAssay AID2546",
  "about": "(National Center for Advancing Translational Sciences (NCATS), 2010)",
  "note": "Among all 310,000 compounds or so, about 11,000 (3.5%) were called active. The shares of active, inactive and inconclusive entries below differ from those in the screen. Calls come from the whole dose curve; as a rule, active = well fitted inhibition curve with a large enough effect; inconclusive = small, poorly fitted or top-dose-only effect, or effect the other way; inactive = flat fitted curve, though single readings scatter. No potency is given beside an inconclusive call; the fits are too rough. % is set by controls: 0 for no effect and ±100 for the full control effect; potency is the fitted concentration of half-maximal effect; tags give direction and shape of the fitted curve.",
  "data": [
    {"experiment": "VP16 counterscreen qHTS for inhibitors of ROR gamma transcriptional activity;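 note: Gal4-VP16 expression switched on by copper sulfate through the metallothionein promoter; nearly all actives have a fitted effect of over 50% in size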", "settings": "Drosophila S2 Gal4-VP16 UAS-luciferase, luminescence, 20 h; activity, negative = inhibition: at 53.6 µM (top of the series)", "values": [
      {"smiles": "Cc1ccc(-c2nn(-c3ccccc3)cc2CC(=S)N2CCOCC2)cc1", "Potency": "inconclusive [inhibitor, single point]"},
      {"smiles": "O=C(NCCc1cccc(Cl)c1)c1cc2ccccc2oc1=O", "activity, negative = inhibition": "inactive: -6.37%"},
      {"smiles": "O=C(CSc1ccccc1)Nc1ccccc1N1CCOCC1", "activity, negative = inhibition": "inactive: 9.32%"},
      {"smiles": "O=C(O)c1ccc2c(c1)C(=O)N(NC(=O)c1ccc(O)cc1)C2=O", "Potency": "inconclusive [inhibitor, single point]"},
      {"smiles": "O=C(N/N=C/c1ccccc1O)C1CC(=O)N(c2ccc(Cl)cc2)C1", "note": "(stereo unspecified)", "Potency": "active: 1.12 µM"},
      {"smiles": "CCN(Cc1ccccc1)S(=O)(=O)c1cc(C(=O)NC(C)C2CC3CCC2C3)ccc1OC", "note": "(stereo unspecified)", "activity, negative = inhibition": "inactive: -9.87%"},
      {"smiles": "Cc1cc(NC2CCCC2)n2ncc(-c3ccccc3)c2n1", "Potency": "active: 8.91 µM"},
      {"smiles": "CN=c1scc(-c2ccccc2F)n1/N=C/c1ccc[nH]1", "Potency": "active: 0.631 µM"},
      {"smiles": "COc1ccc(S(=O)(=O)N2CCCN(CCC(=O)Nc3cccc(C(F)(F)F)c3)CC2)cc1", "Potency": "inconclusive [inhibitor, single point]"},
      {"smiles": "Cc1ccc(C(=O)OCC(=O)NCCN2C(=O)CSC2=O)cc1", "Potency": "inconclusive [inhibitor, single point]"},
      {"smiles": "COc1cccc(-c2nc(NCc3ccc(OC)cc3OC)c3ccccc3n2)c1", "activity, negative = inhibition": "inactive: 4.75%"},
      {"smiles": "CCOC(=O)N1CCN(C(=O)C2CCCN(S(=O)(=O)c3ccccc3)C2)CC1", "note": "(stereo unspecified)", "activity, negative = inhibition": "inactive: 10.6%"},
      {"smiles": "O=C(CSc1nc2ccccc2c(=O)[nH]1)Nc1ccc(N2CCOCC2)cc1", "Potency": "inconclusive [inhibitor, single point]"},
      {"smiles": "Cc1nc(SCC(=O)c2cccs2)c2oc3ccccc3c2n1", "Potency": "inconclusive [inhibitor, single point]"},
      {"smiles": "O=C(Nc1ccccc1F)c1ccc(-c2cccc([N+](=O)[O-])c2)o1", "Potency": "inconclusive [activator, full curve, poor fit]"},
      {"smiles": "COc1ccc(NC(=O)C(C)SCc2ccccc2)cc1OC", "note": "(stereo unspecified)", "Potency": "inconclusive [activator, single point]"},
      {"smiles": "CCOC(=O)c1ccc(N2C(=O)c3n[nH]c(C)c3C2c2ccccn2)cc1", "note": "(stereo unspecified)", "activity, negative = inhibition": "inactive: 3.18%"},
      {"smiles": "CC(C)(C)OC(=O)NC(NC(=O)OCC1c2ccccc2-c2ccccc21)C(=O)O", "note": "(stereo unspecified)", "activity, negative = inhibition": "inactive: -2.88%"},
      {"smiles": "O=c1[nH]c(SCc2ccc(F)cc2)nc2c1cnn2-c1ccc(F)cc1", "Potency": "inconclusive [inhibitor, single point]"},
      {"smiles": "Cc1nn(Cc2c(F)cccc2Cl)c(C)c1NC(=O)C1CC1", "activity, negative = inhibition": "inactive: -9.47%"},
      {"smiles": "O=C(N=Nc1c(O)[nH]c2ccccc12)c1ccco1", "Potency": "inconclusive [inhibitor, single point]"},
      {"smiles": "O=C(CCC(=O)Nc1ccccc1)NNC(=O)C(c1ccccc1)c1ccccc1", "activity, negative = inhibition": "inactive: -5.1%"},
      {"smiles": "CCOC(=O)C1=C(C)N=c2s/c(=C\\c3ccc(OCC(=O)O)cc3)c(=O)n2C1c1ccc(Cl)cc1", "note": "(stereo unspecified)", "activity, negative = inhibition": "inactive: -12.8%"},
      {"smiles": "Cc1nn(-c2ccccc2)c(N2CCCC2)c1/C=N/NC(=S)Nc1cc(C(F)(F)F)ccc1Cl", "Potency": "active: 2.82 µM"},
      {"smiles": "CCCc1ccccc1OCCNS(=O)(=O)c1cc2c(cc1C)OCC(=O)N2", "Potency": "inconclusive [inhibitor, single point]"},
      {"smiles": "N/C(=N\\OC(=O)c1cccs1)c1ccccc1", "Potency": "inconclusive [inhibitor, single point]"},
      {"smiles": "O=C1CC(Sc2nnc(-c3ccccc3)o2)C(=O)N1c1ccccc1", "note": "(stereo unspecified)", "Potency": "active: 3.98 µM"},
      {"smiles": "CCOc1cc(/C=C2/C(=O)ON=C2C)ccc1OCc1ccccc1", "Potency": "inconclusive [inhibitor, single point]"},
      {"smiles": "Cc1cccc(C2=NN(c3ccccc3)[C@H](CO)[C@H]2c2ccc(Cl)cc2)c1", "Potency": "active: 39.8 µM"},
      {"smiles": "CCC1Cc2cc(O)ccc2C2=C1c1ccc(O)cc1CC2CC", "note": "(stereo unspecified)", "Potency": "active: 12.6 µM"},
      {"smiles": "COc1ccccc1NS(=O)(=O)c1cccc(NC(=O)c2nc3nc(C)cc(C)n3n2)c1", "activity, negative = inhibition": "inactive: -10.2%"},
      {"smiles": "N#CCCn1c(=O)c(-c2ccc(Cl)cc2)nc2cnc(N3CCNCC3)nc21", "Potency": "inconclusive [inhibitor, single point]"},
      {"smiles": "CCN1C(=S)SC(=O)C1=C1C=C(C)N(Cc2ccco2)C(C)=C1", "Potency": "inconclusive [inhibitor, single point]"},
      {"smiles": "O=C1c2sc3nc4n(c(=O)c3c2CCC1Br)CCCCC4", "note": "(stereo unspecified)", "Potency": "active: 20 µM"},
      {"smiles": "Cc1ccc(NC(=S)NC(NC(=O)c2ccccc2)C(Cl)(Cl)Cl)c(C)c1", "note": "(stereo unspecified)", "Potency": "inconclusive [inhibitor, single point]"},
      {"smiles": "C(=C\\c1ccccc1)/CSc1ccccn1", "Potency": "inconclusive [activator, single point]"},
      {"smiles": "O=c1cc(-c2ccc(O)cc2)oc2ccc(O)cc12", "Potency": "inactive"},
      {"smiles": "Cc1ccc(-c2nn(-c3ccccc3)cc2C2SCC(=O)N2Cc2ccccc2)o1", "note": "(stereo unspecified)", "Potency": "inconclusive [inhibitor, single point]"},
      {"smiles": "COc1ccc(C2CC(=O)c3cnc(N4CCN(Cc5ccccc5)CC4)nc3C2)cc1", "note": "(stereo unspecified)", "Potency": "inconclusive [inhibitor, single point]"},
      {"smiles": "Cc1ccc(-n2c3c(cc(C(=O)NCc4ccco4)c2=O)C(=O)CC(C)(C)C3)cc1", "Potency": "inconclusive [inhibitor, single point]"},
      {"smiles": "Cc1ccc(NC(=O)CN(C)C(=O)/C=C/c2cccs2)cc1", "Potency": "inconclusive [activator, single point]"},
      {"smiles": "Brc1ccccc1Cn1c(-c2cscn2)nc2ccccc21", "Potency": "inconclusive [inhibitor, single point]"},
      {"smiles": "Cc1cc(Cl)ccc1OCC(=O)Nc1ccncc1", "Potency": "inconclusive [inhibitor, single point]"},
      {"smiles": "Cc1ncc(CO)c2c1Oc1nc(-c3ccccc3)nc(SCC(=O)N(C)c3ccccc3)c1C2", "Potency": "inconclusive [inhibitor, single point]"},
      {"smiles": "CCN(c1ccccc1)S(=O)(=O)c1ccc(Cl)c(NC(=O)COC(=O)c2cc(O)c3ccccc3c2O)c1", "Potency": "active: 12.6 µM"},
      {"smiles": "COc1ccc(OC)c(NC(=O)CC2SC(=Nc3ccc(F)cc3)N(CCC3=CCCCC3)C2=O)c1", "note": "(stereo unspecified)", "Potency": "inconclusive [inhibitor, single point]"},
      {"smiles": "Cc1cc(C)nc(NC(=O)c2cccs2)c1", "Potency": "inconclusive [activator, single point]"},
      {"smiles": "COC(=O)C1=NN(c2ccc(OC)cc2)C2C(=O)N(c3ccccc3OC)C(=O)C12", "note": "(stereo unspecified)", "activity, negative = inhibition": "inactive: -10.3%"},
      {"smiles": "Cc1ccc(NC(=S)N2CCCC(c3nc4ccccc4[nH]3)C2)cc1", "note": "(stereo unspecified)", "activity, negative = inhibition": "inactive: -4.02%"},
      {"smiles": "Cc1ccc(NC(=O)c2ccc(OC(=O)COc3cccc(Cl)c3)cc2)cc1", "Potency": "inconclusive [activator, single point]"},
      {"smiles": "Cc1ccc(C2CC(=O)Oc3ccc(C(C)(C)C)cc32)cc1", "note": "(stereo unspecified)", "Potency": "inconclusive [inhibitor, single point]"},
      {"smiles": "CC(S)C(=O)NCC(=O)O", "note": "(stereo unspecified)", "activity, negative = inhibition": "inactive: -2.09%"},
      {"smiles": "CC(=O)N1CCc2ccc(S(=O)(=O)Nc3ccccc3Cl)cc21", "activity, negative = inhibition": "inactive: -20%"},
      {"smiles": "CCOc1ccc(OCc2cccc(C(=O)O)c2)cc1", "Potency": "inconclusive [inhibitor, partial curve, poor fit]"},
      {"smiles": "O=C(CSc1nnc(C2CCCCC2)o1)Nc1ccccc1Cl", "Potency": "inconclusive [activator, partial curve]"},
      {"smiles": "CCOC(=O)c1ccc(NC(=O)Oc2cc(C)c(Cl)cc2C(C)C)cc1", "activity, negative = inhibition": "inactive: -15.8%"},
      {"smiles": "CN(C)NC(=S)Nc1cccc(C(F)(F)F)c1", "Potency": "active: 5.62 µM"},
      {"smiles": "CC(C)c1ccc(/C=N\\NC(=O)c2ccc(Cn3cccn3)o2)cc1", "Potency": "inconclusive [inhibitor, single point]"},
      {"smiles": "Oc1ccccc1/C=C/c1noc(-c2ccccc2O)n1", "Potency": "inconclusive [inhibitor, partial curve, poor fit]"},
      {"smiles": "O=C(C/C=N/OCc1ccccc1F)c1cnc(-c2ccc(Cl)cc2)s1", "activity, negative = inhibition": "inactive: -3.87%"},
      {"smiles": "Cc1cccc(N/C=C/C(=O)c2cccs2)c1C", "Potency": "inconclusive [inhibitor, single point]"},
      {"smiles": "Cc1cc2c(N=NC(=O)CCc3ccccc3)c(O)[nH]c2cc1Br", "Potency": "inconclusive [inhibitor, single point]"},
      {"smiles": "Cc1ccccc1C(=O)NC(=S)NCCc1ccccc1", "Potency": "inconclusive [inhibitor, single point]"},
      {"smiles": "O=C(CSc1nnc(NC(=O)C2CCC2)s1)Nc1ccccc1Br", "activity, negative = inhibition": "inactive: -4.12%"},
      {"smiles": "CN1CCN(S(=O)(=O)c2ccc3c(c2)OCCO3)CC1", "activity, negative = inhibition": "inactive: 2.53%"},
      {"smiles": "COC(=O)C(Cc1ccccc1)NC(=S)NC(=O)c1ccccc1", "note": "(stereo unspecified)", "Potency": "inconclusive [inhibitor, single point]"},
      {"smiles": "CCN1C(=O)C(CC(=O)Nc2ccc(F)cc2)N(CCCN2CCN(c3ccc(F)cc3)CC2)C1=S", "note": "(stereo unspecified)", "Potency": "inconclusive [inhibitor, single point]"},
      {"smiles": "CCNc1nc(C23CC4CC(CC(C4)C2)C3)cs1", "Potency": "inconclusive [inhibitor, single point]"},
      {"smiles": "Cc1ccc(NC(=S)NCc2ccccc2Cl)c(C)c1", "Potency": "active: 5.01 µM"},
      {"smiles": "O=C(N/N=C/c1ccc(-c2ccccc2)o1)c1ccccc1O", "Potency": "active: 0.631 µM"},
      {"smiles": "Cc1sc(N/N=C/c2cccs2)nc1-c1ccccc1", "Potency": "active: 10 µM"},
      {"smiles": "COc1nc(Nc2ccc(C(C)C)cc2)nc(OC)n1", "Potency": "inconclusive [inhibitor, partial curve]"},
      {"smiles": "Cc1ccc(N2CC(C)Cn3c2nc2c3c(=O)[nH]c(=O)n2C)cc1", "note": "(stereo unspecified)", "activity, negative = inhibition": "inactive: 2.68%"},
      {"smiles": "O=C(O)C(Cc1c[nH]c2ccccc12)NS(=O)(=O)c1ccccc1", "note": "(stereo unspecified)", "activity, negative = inhibition": "inactive: -4.99%"},
      {"smiles": "O=C(Nc1ccc(C(F)(F)F)cc1)c1cc(S(=O)(=O)NCC2COc3ccccc3O2)ccc1F", "note": "(stereo unspecified)", "Potency": "inconclusive [inhibitor, single point]"},
      {"smiles": "CC(C)N(C(=O)CSc1nc2ccccc2n1Cc1ccccc1F)C(C)C", "Potency": "inconclusive [inhibitor, single point]"}
    ]}
  ]
}
